# PMC4336329 (PLoS ONE, 2015)
# Out of some 310,000 compounds screened, about 2,200 (0.71%) showed an effect of 50% or more. Effects have a minus sign here. This is one part of the list.
# Biological target: human ether-à-go-go-related gene (hERG) potassium channel (human, UniProt Q12809)
# Test: primary screen, population patch clamp on CHO cells stably expressing hERG
# Chain of human ether-à-go-go-related gene (hERG) potassium channel (Q12809 whole entry, looked up): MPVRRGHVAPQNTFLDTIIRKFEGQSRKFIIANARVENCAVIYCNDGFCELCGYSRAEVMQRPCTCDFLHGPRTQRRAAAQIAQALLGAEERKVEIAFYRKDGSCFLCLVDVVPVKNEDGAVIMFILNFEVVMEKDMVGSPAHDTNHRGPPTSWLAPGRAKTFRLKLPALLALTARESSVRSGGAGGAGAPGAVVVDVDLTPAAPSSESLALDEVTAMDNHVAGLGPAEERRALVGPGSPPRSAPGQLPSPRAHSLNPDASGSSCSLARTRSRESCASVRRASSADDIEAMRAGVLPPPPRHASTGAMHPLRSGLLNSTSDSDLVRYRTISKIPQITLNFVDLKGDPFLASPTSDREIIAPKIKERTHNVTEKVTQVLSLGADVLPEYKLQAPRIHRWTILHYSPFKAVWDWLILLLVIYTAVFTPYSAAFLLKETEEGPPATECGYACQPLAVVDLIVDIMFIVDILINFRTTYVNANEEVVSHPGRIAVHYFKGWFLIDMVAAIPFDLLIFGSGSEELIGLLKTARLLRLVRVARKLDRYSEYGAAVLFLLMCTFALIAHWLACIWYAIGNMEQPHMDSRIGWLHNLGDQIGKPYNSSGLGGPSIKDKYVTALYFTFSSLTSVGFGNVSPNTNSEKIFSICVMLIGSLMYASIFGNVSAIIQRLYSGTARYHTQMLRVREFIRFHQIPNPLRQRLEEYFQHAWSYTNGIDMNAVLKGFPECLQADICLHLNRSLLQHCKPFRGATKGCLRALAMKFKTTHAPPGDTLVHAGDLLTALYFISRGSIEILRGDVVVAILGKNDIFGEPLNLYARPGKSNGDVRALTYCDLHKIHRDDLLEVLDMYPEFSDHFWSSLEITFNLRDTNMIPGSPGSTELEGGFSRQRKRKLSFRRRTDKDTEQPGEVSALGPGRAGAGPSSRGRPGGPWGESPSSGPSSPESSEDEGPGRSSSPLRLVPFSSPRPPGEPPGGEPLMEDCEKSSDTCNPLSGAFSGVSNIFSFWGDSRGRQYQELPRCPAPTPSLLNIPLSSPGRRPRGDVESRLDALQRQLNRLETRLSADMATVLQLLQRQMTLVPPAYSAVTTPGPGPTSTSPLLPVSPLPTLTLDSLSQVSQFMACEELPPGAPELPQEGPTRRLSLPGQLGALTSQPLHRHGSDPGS
row,SMILES,"hERG current change (%, negative = inhibition) at 1uM"
1,O=C(NC1CCN(C(=O)NC2CCCCC2)CC1)c1cccc(F)c1,10.9%
2,C=CCNC(=O)COc1ccc(S(=O)(=O)Nc2ccc(OCC)cc2)cc1,9.68%
3,CC1CC(C)(C)CC2(C1)NC(=O)N(CC(=O)Nc1nccs1)C2=O (stereo not drawn),6.1%
4,O=C(NS(=O)(=O)c1ccc(NC(=O)C2CCCO2)cc1)c1ccccc1 (stereo not drawn),-0.266%
5,CC(C)n1nc(C(=O)Nc2cccc(S(=O)(=O)N3CCOCC3)c2)c2ccccc2c1=O,3.84%
6,CC1=C/C(=N\NC(=S)NCc2ccccc2)CC1,1.56%
7,O=S(=O)(NCCO)c1ccc2c(c1)Cc1cc(S(=O)(=O)NCCO)ccc1-2,6.46%
8,Cc1ccc(-c2n[nH]c(=S)nc2-c2ccc(C)cc2)cc1,14.1%
9,Cc1ccc(-n2c(O)c(/C=N/n3cnnc3)c3ccccc3c2=O)cc1 [7972794],6.44%
10,Cc1cc(C(=O)NC2CC(C)(C)Cc3c2cnn3-c2ccc(F)cc2)no1 (stereo not drawn),5.59%
11,Cc1ccccc1NC(=S)N1CCN(c2ccccc2C)CC1,14.3%
12,CCC(C(=O)NC1CCCC1)N(C(=O)c1snc(C(N)=O)c1N)c1ccc(OC)c(OC)c1 (stereo not drawn),9.24%
13,COC(=O)/C=C1\NC(=O)C(C)S1 (stereo not drawn),9.78%
14,CC(CCc1ccccc1)NCC#N.Cl (stereo not drawn),13.2%
15,CN(Cc1ccccc1)C(=O)CCS(=O)(=O)c1ccc2c(c1)n(C)c(=O)c(=O)n2C,-0.0562%
16,COc1ccc(COC(=O)C2=C(C)NC(=O)NC2c2ccc(OC)c(OC)c2)cc1 (stereo not drawn),12.4%
17,COc1ccccc1CNS(=O)(=O)c1ccc2c(c1)CC(C)N2C(=O)C1CC1 (stereo not drawn),11.4%
18,CC1NC(C)(C)Cc2c1ccc1ccccc21.Cl (stereo not drawn),11.7%
19,COc1ccc(OC)c(NC(=O)COC(=O)c2ccc(OC)c(S(=O)(=O)N3CCCC3)c2)c1,9.36%
20,CC1(C)CC(/C=C/c2ccccc2)=Nc2ccccc2N1,1.65%
21,COC(=O)C1=C(c2cccc(OCc3ccccc3)c2)C[C@@H]2CC[C@H]1N2C(=O)NCc1ccc([N+](=O)[O-])cc1,14.2%
22,O=C1NC(c2ccncc2)Nc2ccccc21 (stereo not drawn),18.7%
23,COc1ccc(C2(CNC(=O)CCC(=O)O)CCCC2)cc1,5.81%
24,Cc1cc(OC(C)C(=O)NCCCn2ccnc2)c2c(C)c(C)c(=O)oc2c1 (stereo not drawn),-51.6%
